The campaign covered roughly 360,000 compounds. About 660 (0.18%) were called active. The inconclusive results got no clear call from the source; some entries with a clear call stand among them for comparison. The call rests on the fitted dose curve; in most records, active means well fitted inhibition curve with a large enough effect; inconclusive means small, poorly fitted or top-dose-only effect; inactive means no such curve, though single readings can be large or run the other way. No potency is given beside an inconclusive call; the fits are too rough.
Target: Rap guanine nucleotide exchange factor 4 (Homo sapiens) (UniProt Q8WZA2)
UniProt Q8WZA2, sequence (Q8WZA2 whole entry, looked up): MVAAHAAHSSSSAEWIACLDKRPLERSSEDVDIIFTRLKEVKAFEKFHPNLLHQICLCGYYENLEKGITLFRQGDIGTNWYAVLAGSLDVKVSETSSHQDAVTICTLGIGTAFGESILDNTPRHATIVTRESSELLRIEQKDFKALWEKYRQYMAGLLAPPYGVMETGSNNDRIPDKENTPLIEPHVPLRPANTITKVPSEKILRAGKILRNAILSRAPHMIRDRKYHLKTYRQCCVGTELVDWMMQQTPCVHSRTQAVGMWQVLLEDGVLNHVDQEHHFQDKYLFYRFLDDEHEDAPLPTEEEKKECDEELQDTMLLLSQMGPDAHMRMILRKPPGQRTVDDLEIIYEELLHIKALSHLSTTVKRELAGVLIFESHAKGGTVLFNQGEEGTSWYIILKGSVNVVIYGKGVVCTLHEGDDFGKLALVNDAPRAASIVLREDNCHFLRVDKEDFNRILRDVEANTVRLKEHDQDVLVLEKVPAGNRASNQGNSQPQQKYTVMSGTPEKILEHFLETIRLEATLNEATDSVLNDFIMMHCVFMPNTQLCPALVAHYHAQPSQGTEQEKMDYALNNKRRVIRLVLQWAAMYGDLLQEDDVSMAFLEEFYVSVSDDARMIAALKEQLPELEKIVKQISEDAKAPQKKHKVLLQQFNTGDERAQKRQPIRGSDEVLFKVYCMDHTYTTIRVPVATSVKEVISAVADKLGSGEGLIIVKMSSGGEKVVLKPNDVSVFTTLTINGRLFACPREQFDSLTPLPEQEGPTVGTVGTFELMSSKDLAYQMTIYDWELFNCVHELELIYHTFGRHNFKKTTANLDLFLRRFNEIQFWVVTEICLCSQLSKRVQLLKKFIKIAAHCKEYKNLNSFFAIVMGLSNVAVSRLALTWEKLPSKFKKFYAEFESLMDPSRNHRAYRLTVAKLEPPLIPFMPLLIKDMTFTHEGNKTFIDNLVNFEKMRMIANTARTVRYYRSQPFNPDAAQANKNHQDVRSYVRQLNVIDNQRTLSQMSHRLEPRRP
Test: qHTS for Antagonist of cAMP-regulated guanine nucleotide exchange factor 2 (EPAC2): primary screen; further: nearly all actives have a fitted effect of over 45% in size
Details: EPAC2 GEF exchange of Rap1B-BODIPY-GDP, fluorescence; activity, negative = inhibition: at 114 µM (top of the series) unless noted
On the % scale 0 is the no-effect control and ±100 the full control effect; potency means the concentration at half of the fitted maximal effect; tags describe the fitted curve by direction and shape.

| SMILES | Potency | activity, negative = inhibition |
| --- | --- | --- |
| CCCCC[C@H]1CN(C2CCCCC2)C(=O)[C@@H]1CC(=O)NCc1ccc(OC)cc1 | inconclusive [inhibitor, partial curve, poor fit] | – |
| COc1cccc(-c2sc3ccc(OC)cc3c2C#CC(C)(C)O)c1 | inconclusive [inhibitor, partial curve] | – |
| Nc1cccc2c(O)cc(S(=O)(=O)O)cc12 | – | inactive: -29.5% |
| COc1nc(-c2ccccc2)ncc1S(=O)(=O)c1ccccc1 | – | inactive: -17.4% |
| COc1cc(NC(=O)CSc2cc(C)c3cc(C)cc(C)c3n2)c(C(=O)O)cc1OC | inconclusive [inhibitor, partial curve] | – |
| c1ccc(CNc2nc(-c3cccs3)nc3ccccc23)nc1 | inconclusive [inhibitor, partial curve] | – |
| CCOC(=O)N1CCC(NC(=O)c2ccc3c(c2)N=C(C)c2c(C)ccc(C)c2S3)CC1 | – | inconclusive: -15.4% [inhibitor] |
| CN(CC(=O)Nc1ccccc1[N+](=O)[O-])Cc1ccc(Br)cc1 | inconclusive [inhibitor, partial curve] | – |
| O=C(Nc1ccc2nc3ccccc3nc2c1)c1ccc(Br)cc1 | – | inactive: 5.14% |
| N#Cc1ccc(N2C(=O)[C@@H]3C(C(=O)c4cnccn4)=NN[C@@H]3C2=O)cc1 | – | inactive: 10.4% |
| CCCCCCCCN1C(=O)[C@H](CC(=O)N2CCN(C(=O)OCC)CC2)C[C@@]2(C(=O)OCC)CCCC=C12 | inconclusive [inhibitor, single point] | – |
| COc1ccccc1/C=C/C=N/n1c(-c2cc(-c3ccccc3)n[nH]2)n[nH]c1=S | – | inactive: 4.99% |
| Cc1ccc(OCCSc2ncccn2)c(C)c1 | inconclusive [inhibitor, partial curve] | – |
| COc1ccccc1-c1oc2ccccc2c1C#CC1(O)CCCCC1 | inconclusive [inhibitor, single point] | – |
| Nc1c(N2CCCC2)cc(Cl)c2nonc12 | inconclusive [inhibitor, partial curve] | – |
| CCc1cccc(C)c1N1C(=O)CN(Cc2ccccc2)C1=S | inconclusive [inhibitor, partial curve] | – |
| C/C(=N\OC(=O)Nc1ccc(Cl)cc1)c1ccc(F)c(F)c1 | inconclusive [inhibitor, full curve, poor fit] | – |
| CC1(C(=O)NCc2cccc3ccccc23)CCN1Cc1ccc(OC(F)(F)F)cc1 (stereo not drawn) | inconclusive [inhibitor, full curve] | – |
| COc1cccc(OC)c1NC(=O)CN1CCN(C)CC1 | – | inactive: -0.201% |
| COc1cccc(NC(=O)CCCNC(=O)Cn2cnc3sc(C)c(C)c3c2=O)c1 | inconclusive [inhibitor, single point] | – |
| COC(=O)[C@@]1(Sc2ccc(C)cc2)CC(=O)N(C(=O)c2ccccc2)[C@@H]1c1ccccc1 | inconclusive [inhibitor, full curve] | – |
| Cc1ccc(SCC(=O)OCC(=O)NCC2CCCCC2)cc1C | inconclusive [inhibitor, partial curve, poor fit] | – |

| SMILES | Potency | activity, negative = inhibition |
| --- | --- | --- |
| Cc1cc(/C=C2/NC(=O)N(c3ccccc3)C2=O)c(C)n1-c1cccnc1 | – | inactive: -1.57% |
| CC1=CC2=NC(=O)/C(=C\c3cc(C)n(-c4cccc(Cl)c4)c3C)C(=N)N2O1 | – | inactive: -1.24% |
| COc1ccc2nc(NC(=O)c3c(C)noc3C)sc2c1 | inconclusive [inhibitor, single point] | – |
| C(=N\Nc1ccc2nncn2n1)/c1ccccn1 | inconclusive [inhibitor, single point] | – |
| O=C1c2ccc3c4c(ccc(c24)C(=O)N1c1cccc(O)c1)CC3 | inconclusive [inhibitor, single point] | – |
| COc1ccccc1-c1csc(C(O)c2cccc(Cl)c2)n1 (stereo not drawn) | inconclusive [inhibitor, partial curve, poor fit] | – |
| CCOC(=O)c1c2c3c(cccc3n(C)c1=O)C(=O)c1ccccc1-2 | inconclusive [inhibitor, partial curve] | – |
| CCC/C=C/c1ccc(CN2C(C(C)C)C(=O)N(Cc3cn(CC4CCCCC4)nn3)CCS2(=O)=O)cc1 (stereo not drawn) | – | inactive: -8.77% |
| Cc1cc(C)c(S(N)(=O)=O)c(C)c1N(C)S(=O)(=O)c1ccc(Cl)cc1 | inconclusive [inhibitor, full curve, poor fit] | – |
| OC(c1ccc(Cl)cc1)c1nccc2ccccc12 (stereo not drawn) | inconclusive [inhibitor, partial curve] | – |
| Oc1cc(O)cc(-c2cc3ccc(O)cc3o2)c1 | inconclusive [inhibitor, partial curve] | – |
| O=C(NCCc1ccc(Cl)cc1Cl)c1cc([N+](=O)[O-])c[nH]c1=O | inconclusive [inhibitor, partial curve] | – |
| Cn1cc([C@]2(O)C(=O)Nc3ccc(OC(F)(F)F)cc32)c2ccccc21 | active: 22.4 µM | – |
| COC(=O)CN(c1nc(C)c(Br)c(OC)n1)S(=O)(=O)c1ccccc1 | inconclusive [inhibitor, partial curve] | – |
| COC(=O)c1c(-c2ccc(OC)cc2)oc2ccccc12 | inconclusive [inhibitor, full curve] | – |
| CCCCCCC(=O)NNC(=O)c1c(O)c2ccccc2n(CCC)c1=O | – | inconclusive: -16.7% [inhibitor] |
| CC(/C=C1\SC(=S)N(NS(=O)(=O)c2ccc(C)cc2)C1=O)=C\c1ccccc1 | active: 35.5 µM | – |
| CC(=O)C(C(c1ccccc1)N1CCCc2ccccc21)N1CCOCC1 (stereo not drawn) | inconclusive [inhibitor, partial curve] | – |
| COc1cc(N)c(C(=O)c2nccc3cc(OC)c(OC)cc23)cc1OC | – | inactive: 8.24% |
| Cc1cc(NCc2ccco2)n2c(nc3ccccc32)c1C#N | inconclusive [inhibitor, single point] | – |
| Cc1cc(C)cc(C(O)c2ncc(-c3ccccc3Cl)[nH]2)c1 (stereo not drawn) | inconclusive [inhibitor, partial curve] | – |
